The text below walks through data of the RNAGym collection of RNA variant scans (doi:10.7554/elife.90254).

To fix the notation:
B1: LINE1-mini (parent)
chain: GGCAGAGCUCAACACAGCGUGGCAAAGUGGCUGUGGCUAGACUGCC

The source gives no read counts; variants with many changes may rest on few reads.

The variants in this data set derive from B1. The data set is described as follows: self-cleavage, relative activity (ratio to wild type); higher = more cleavage; in vitro, sequencing; the parent is a self-cleaving ribozyme.
Consider GGCAGAGCUCAACAUAGCGUGGCAAAGUGGCUGUUGCUCGACUGCC, for which the self-cleavage is 0.09.

Take GGCAGAGCUCAACAUAGCGUGGCAAAGUGGCUGUGCCUAGGCUGCC: the self-cleavage came out at 0.06.

With GGCAGAGCUCAACAUAGCGUUGCAAAGUUACUGUGGCUAGAGUUCC, the self-cleavage came to 0.02.

Take GGCAGAGCUCAACAUAGCGAGGCAAAGUGGCUAUGGCUAGACUGAC: the self-cleavage is 0.32.

On to GGCAGAGCUCAACAUAGCGUGGUAAAAUGGCUUCGGCUAGACUGCC, for which the self-cleavage came out at 0.32.

Turning to GGCAGAGCUCAACAUAGCGUGCCAAAUUGGCUGUGUCUAGACUGCC, the self-cleavage came out at 0.14.

Consider GGCAGAGCUCAACAUAGCGUGGGAAAGUGGCUGUGGCUAGACCGCC, for which the self-cleavage stood at 0.11.

With GGCAGAGCUCAACAUAGCGUGGCAAAGUGGCUGUUGCUAGCCUGCC, the self-cleavage was 0.11.

As to GGCAGAGCUCAACAUAGCGUGGCAAAGUGGCUGUGACUAGACGGCC, the self-cleavage was 0.3.

In the case of GGCAGAGCUCAACAUAGCGUGGCAAAGUGGCUUUAGCUAGACUGCC, the self-cleavage stood at 0.11.

Regarding GGCAGAGCUCAACAUAGCGUGCCAAAGUGCCCGUGGCUAGACUGCC, the self-cleavage was found to be 0.27.

Take GGCAGAGCUCAACAUAGCGUGGCAAAGUGUAUGUCGCUAGACUGAC: the self-cleavage was found to be 0.12.

Take GGCAGAGCUCAACAUAGCUUGGCAAAGUGGCUGGGGCUAGACUGCC: the self-cleavage is 0.03.

GGCAGAGCUCAACAUAGCGUGGCAAAGUGGAUGUGCCGAGACUUUU: the self-cleavage was determined as 0.07.

For GGCAGAGCUCAACAUAGCGUGGCAAAGUGUCUGUGGCUAGAGUGCC, the self-cleavage was found to be 0.02.

In the case of GGCAGAGCUCAACAUAGCUUGGCAAAGUGGUGGUGGGUAGAGUGCC, the self-cleavage was found to be 0.04.

As to GGCAGAGCUCAACAUAGCGUGGCAAAUUGGCUGUGGCUAAACUGCC, the self-cleavage came out at 0.18.

On to GGCAGAGCUCAACAUAGCGUGGCAAAGUGGCUGUCGCUAGACUACC, for which the self-cleavage was 0.04.

Consider GGCAGAGCUCAACAUACCGUGGCAAACUGGCUGUUGCUAGACUGAC, for which the self-cleavage worked out at 0.04.

For GGCAGAGCUCAACAUAGCUUGGCAAAGUGGCUGUCGCUAGACUUCC, the self-cleavage stood at 0.06.

Regarding GGCAGAGCUCAACAUAGCGUUGCGAAGUGGCUGUGGCUGGACUGCC, the self-cleavage was 0.

For GGCAGAGCUCAACAUAGCGUGGCAAAGUGGCUGUGGCUAGACUCCU, the self-cleavage amounted to 0.06.

As to GGCAGAGCUCAACAUAGCAUGGCAAAGUUACUGUGGCUAGACUGUC, the self-cleavage was determined as 0.12.

Take GGCAGAGCUCAACAUAGCGUGGCAAAGUGGCUAUUGCUAGACUGCC: the self-cleavage came to 0.03.

With GGCAGAGCUCAACAUAGCGAGGCAACGUGGCAGUGGCUAGACUGCC, the self-cleavage was found to be 0.03.

Turning to GGCAGAGCUCAACAUAGCGUGGCAAAUUGGCUAUCGCUAGACUGCC, the self-cleavage was found to be 0.34.

With GGCAGAGCUCAACAUAGCGUGGCAAAGUGGUUGUGGCGAGACUGCC, the self-cleavage was 0.03.

Turning to GGCAGAGCUCAACAUAGCGUGGCAAAGUGGCUGUGGUUAAACUGCC, the self-cleavage is 0.05.

As for GGCAGAGCUCAACAUAGCGUGCCAAAGUGGCGGUGGCUAGACUGCC, the self-cleavage stood at 0.02.

On to GGCAGAGCUCAACAUAGCGUGGCAAAGUGGCUGUGGCUAAUCUGCC, for which the self-cleavage stood at 0.08.

With GGCAGAGCUCAACAUAGCGUGUCAAAACGGCUGUGGCUAGACUGCC, the self-cleavage amounted to 1.65.

In the case of GGCAGAGCUCAACAUAGCGUGGCAAAGUAGCUGUCGCUAGACUGCC, the self-cleavage was found to be 0.01.

Regarding GGCAGAGCUCAACAUAGCGUGCCAGAGUGGCUGUGGCUAGGCUGCC, the self-cleavage came out at 0.17.

In the case of GGCAGAGCUCAACAUAGCGUGGCAAAGUGGAUGUGGCUAGAAUGCC, the self-cleavage came to 0.12.

For GGCAGAGCUCAACAUAGCCUGGCAUAGUGGCUGUGGCUAGACUACC, the self-cleavage turned out to be 0.09.

Consider GGCAGAGCUCAACAUAGCGUGGUAAAGUGGCUCUGGCUAAACUGCC, for which the self-cleavage was 0.03.

Turning to GGCAGAGCUCAACAUAGCGUGGUAAAGUCGCUGUGGCUAGACGGCC, the self-cleavage amounted to 0.01.

With GGCAGAGCUCAACAUAGCGUGGCAAAGUGCCUGUGGAUAGACUGCC, the self-cleavage came to 0.02.

For GGCAGAGCUCAACAUAGCGUGGCAAAGUGGUUAUGACUAGACUGCC, the self-cleavage is 0.05.

As for GGCAGAGCUCAACAUAGCGUGGCAAAGUGGUUGUGGCUACACUCCA, the self-cleavage was determined as 0.

Take GGCAGAGCUCAACAUAGCGUGGCAAAGUGGCUGUGACUUGAUUGCC: the self-cleavage turned out to be 0.07.

In the case of GGCAGAGCUCAACAUAGCGUGGCAAAGUUGCUGUAGCUAGACUUCC, the self-cleavage came out at 0.05.

As to GGCAGAGCUCAACAUAGCGUCGCAAAGUGGCUGAGGCUAGACUGCC, the self-cleavage turned out to be 0.1.

Turning to GGCAGAGCUCAACAUACCGUGGCAAAGUGGCUGAGGCUAAACUGCC, the self-cleavage came out at 0.14.

With GGCAGAGCUCAACAUAGCGUGGCAAACUGGCUGUGGCUAGACUCCC, the self-cleavage was 1.86.

Take GGCAGAGCUCAACAUAGCGUAGCAAAGUGGCUGUGGCUUGACUGCC: the self-cleavage was determined as 1.05.

Consider GGCAGAGCUCAACAUACCGUGGCAAAGUGGCUGUGCCUAGCCUGCC, for which the self-cleavage stood at 0.07.

Take GGCAGAGCUCAACAUAGCGUGGCAAAGUGGCUGUGUCUAGCCUGCC: the self-cleavage came out at 0.02.

Regarding GGCAGAGCUCAACAUAGCAUGGCAAAGUGGCUGUGAGUAGACUGCC, the self-cleavage stood at 0.12.

Take GGCAGAGCUCAACAUAGCGUGGCAAAAUGGCUGUAGCUAGACUGCC: the self-cleavage turned out to be 0.6.

Consider GGCAGAGCUCAACAUAGCGAGGCAAAGUGGCUUUGGCUUUACUGCC, for which the self-cleavage came to 0.11.

Regarding GGCAGAGCUCAACAUAGCGUGGCAAAUUGGCUGUGGCAAGACUGCC, the self-cleavage turned out to be 0.12.

On to GGCAGAGCUCAACAUAGCGUGGCAAAGUAGCUGUGGAUAGACUGCC, for which the self-cleavage was 0.11.

Regarding GGCAGAGCUCAACAUAGCAUGGCAAAGUGGCUGUUGCUAGAAUGCC, the self-cleavage is 0.1.

Regarding GGCAGAGCUCAACAUAGCCUGGCAAAGUGGCUGAGGCUAGACUGCC, the self-cleavage turned out to be 0.07.

Consider GGCAGAGCUCAACAUAGCGUUGCAAAGUGGCUGUGGGUAGACUGCC, for which the self-cleavage was determined as 0.
